Here are results for one molecule from patent publication EP4786494A1 (Nanjing Leads Biolabs Co., Ltd., dated 2026).

The target in assay [1] is T1, human FGFR2-his protein (huFGFR2-his) (human).
T1 construct: Extracellular region of human FGFR2 (NP_001138385.1) with a 6xHis tag; also called human FGFR2 extracellular protein
T1 chain: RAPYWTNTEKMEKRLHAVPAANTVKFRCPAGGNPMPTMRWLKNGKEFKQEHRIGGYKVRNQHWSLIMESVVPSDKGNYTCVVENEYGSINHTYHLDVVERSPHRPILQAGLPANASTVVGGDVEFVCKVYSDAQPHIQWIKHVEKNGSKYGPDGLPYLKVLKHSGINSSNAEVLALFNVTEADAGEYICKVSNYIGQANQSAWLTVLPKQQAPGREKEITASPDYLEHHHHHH
In words: BLI (ForteBio Octet RED96e), fusion protein on AHC sensor, FGFR2-his in solution, 1:1 model.

Assay [2] deals with T2, human VEGF165 protein (ACROBiosystems, Cat. No. VE5-H5248) (human, UniProt P15692-4 27-191).
T2 construct: the same entry is used for it
T2 sequence (looked up): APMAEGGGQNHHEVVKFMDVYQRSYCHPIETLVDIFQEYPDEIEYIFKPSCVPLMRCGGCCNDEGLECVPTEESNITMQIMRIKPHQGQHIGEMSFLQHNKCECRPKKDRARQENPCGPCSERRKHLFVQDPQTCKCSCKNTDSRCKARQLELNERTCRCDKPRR
In words: BLI (ForteBio Octet RED96e), fusion protein on AHC sensor, VEGF165 in solution, 1:1 model. For orientation: Biolayer interferometry detects binding as a change in optical thickness at a sensor tip.

B1: antibody-fusion protein huG11B8-VEGFR1-F (ADCC-enhanced huG11B8-VEGFR1) (bispecific antibody, human IgG1, kappa)
heavy: EVQLVQSGAEVKKPGATVKISCKASGYTFTDYNMDWVQQAPGKGLEWMGDINPKNGETFYAEKFQGRVTLTVDRSTNTAYMELSSLRSEDTAVYFCAKRDLNWYFDYWGQGTTVTVSS[no letters for human IgG1 constant region]GGGGSGGGGSGGGGSGRPFVEMYSEIPEIIHMTEGRELVIPCRVTSPNITVTLKKFPLDTLIPDGKRIIWDSRKGFIISNATYKEIGLLTCEATVNGHLYKTNYLTHRQTNTI
light: DIQMTQSPSSLSASVGDRVTITCQASDHINNWLAWYQQKPGKAPKLLISGATSLETGVPSRFSGSGSGKDYTFTISSLQPEDIATYYCQQYWSTPWTFGGGTKVEIKRTVAAPSVFIFPPSDEQLKSGTASVVCLLNNFYPREAKVQWKVDNALQSGNSQESVTEQDSKDSTYSLSSTLTLSKADYEKHKVYACEVTHQGLSSPVTKSFNRGEC
notes: Same chains as huG11B8-VEGFR1
In assay [1], B1 had a Kd of 4.53 nM, a koff of 0.00136 s⁻¹ and a kon of 299000 M⁻¹ s⁻¹. In assay [2], this molecule registered a Kd of 0.108 nM, a koff of 6.12e-05 s⁻¹ and a kon of 568000 M⁻¹ s⁻¹.

Usually Kd stands for the free concentration of one partner at which half of the binding sites on the other are occupied at equilibrium, for simple one-to-one binding. The term koff denotes the rate constant with which the complex falls apart. A high value points to a short-lived complex. What is called kon is the second-order rate constant of association.
